Measurements: PubChem BioAssay AID686979 (National Center for Advancing Translational Sciences (NCATS), 2013)
“And” between values parts separate entries of the source, which are not always exact repeats. Equal entries are not always repeated. Screen size: about 420,000 compounds; about 50,000 (12%) were called active. This list was built around the results that the source calls inconclusive (neither active nor inactive); the mix of calls is not that of the screen. Calls follow the shape of the dose curve; as a rule, active = well fitted inhibition curve with a large enough effect; inconclusive = small, poorly fitted or top-dose-only effect; inactive = flat fitted curve, though single readings scatter. Potencies beside an inconclusive call are fits to weak or partial responses and may not hold up.

Assay: qHTS for Inhibitors of human tyrosyl-DNA phosphodiesterase 1 (TDP1): qHTS in cells in presence of CPT; also: nearly all actives have a fitted effect of over 55% in size
Conditions: chicken DT40 Tdp1-/-;hTDP1 cells + 20 nM CPT, ATP luminescence, 48 h; activity change, negative = growth inhibition: at 46.2 µM (top of the series)
Method in brief: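 Chicken DT40 Tdp1-/- cells stably complemented with human TDP1 were seeded at 400 cells/well in medium containing 20 nM camptothecin, exposed to pin-transferred compounds, and grown at 37 °C for at least 48 hr. Viability was read as ATP luminescence.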
% is scaled to controls: 0 for no effect and ±100 for the full control effect; potency is read from the fitted curve at half-maximal effect; tags tell the direction and shape of the fitted curve.

| SMILES | Potency | activity change, negative = growth inhibition |
| --- | --- | --- |
| Clc1ccc(CO/N=C2\CCCc3nonc32)cc1 | inconclusive: 14.6 µM [inhibitor, partial curve] |  |
| Cc1ccc(S(=O)(=O)CCC(=O)Nc2nc3c(s2)CCCC3)cc1 | inconclusive: 29.1 µM [inhibitor, single point] |  |
| CCCCNC(=O)CN1C(=O)NC(Cc2ccccc2)(Cc2ccccc2)C1=O | inconclusive: 14.6 µM [inhibitor, partial curve, poor fit] |  |
| CN(C)c1ncnc2c1ncn2[C@H]1CN(CCN2CCOCC2)C[C@@H](CO)O1 |  | inactive: 2.99% |
| Cc1ccc(C)c(N(C)C(=O)c2cn(C)c(=O)c3ccccc23)c1 | inconclusive: 16.4 µM [inhibitor, single point] |  |
| COc1cc(OC)cc(C(=O)N2CCC3(CC2)NCCc2[nH]cnc23)c1 |  | inactive: -2.5% |
| Cc1cc(C)cc(C(=O)N2CC(C)SC2=Nc2cccc(S(=O)(=O)N(C)C)c2)c1 (stereo unspecified) | inconclusive: 16.4 µM [inhibitor, single point] |  |
| COc1cccc(NC(=O)CCNS(=O)(=O)c2ccc3c(c2)CC(C)N3C(=O)C2CC2)c1 (stereo unspecified) | inconclusive: 29.1 µM [inhibitor, single point] |  |
| CCOC(=O)c1c(Oc2ccc(C(=O)OC)cc2)nnc(-c2ccccc2)c1-c1ccccc1 | active: 16.4 µM |  |
| NC(=O)C1CCN(C(=O)C(=O)c2cn(CC(=O)N3CCCCCC3)c3ccccc23)CC1 |  | inactive: -10% |
| CC(C)(C)c1ccc(-c2cc(-c3ccccc3O)[nH]n2)cc1 | inconclusive: 16.4 µM [inhibitor, single point] |  |
| COc1ccc(-c2nc(CS(=O)CC(=O)NC3CCCCC3C)c(C)o2)cc1OC (stereo unspecified) | inconclusive: 29.1 µM [inhibitor, single point] |  |
| C=CCn1c[n+](CC(=O)c2ccc(Br)s2)c2ccccc21 | active: 20.6 µM |  |
| Cn1c(SCC(=O)c2ccc(O)c(O)c2)nnc1-c1ccccc1 | inconclusive: 29.1 µM [inhibitor, single point] |  |
| COc1cccc(NC(=O)c2ccc3c(O)c(S(=O)(=O)c4ccccc4)c(=O)[nH]c3c2)c1 | active: 23.1 µM |  |
| CC(=O)n1cc([C@@H]2C=C(C(=O)N3CCN(Cc4ccccc4)CC3)O[C@H](OCc3ccc(CO)cc3)C2)c2ccccc21 | active: 8.2 µM |  |
| CCc1cc(C(=O)Cc2nc3ccccc3[nH]2)c(O)cc1O |  | inactive: -21.7% |
| O=C(CNC(=O)c1ccccc1Cl)OCc1cc(=O)n2ccsc2n1 |  | inactive: 18.9% |
| COc1ccccc1C(=O)N(Cc1ccccc1)c1ccc(C)cc1 | active: 14.6 µM |  |
| CC(c1cccnc1)N(CCN(C)C)C(=O)Nc1ccc(Cl)c(Cl)c1 (stereo unspecified) | inconclusive: 29.1 µM [inhibitor, single point] |  |
| O=C(NC1CCCCC1)C(c1ccccc1F)N(Cc1ccco1)C(=O)Cn1nnc2ccccc21 (stereo unspecified) | inconclusive: 23.1 µM [inhibitor, single point] |  |
| CCCn1nc(NC(=O)C2CCCO2)c2cc3cccc(C)c3nc21 (stereo unspecified) |  | inactive: -26.3% |
| O=C(CN1C(=O)C2CCCCC2C1=O)Nc1cc([N+](=O)[O-])ccc1F (stereo unspecified) |  | inactive: -13.1% |
| Cc1cccc(Cn2c(SCc3ccc(C(=O)N4CCCCCC4)cc3)nc3ccncc32)c1 |  | inactive: -122% |

| SMILES | Potency | activity change, negative = growth inhibition |
| --- | --- | --- |
| CC(=O)Oc1ccc(C(=O)Nc2cccnc2)cc1 | inconclusive: 23.1 µM [inhibitor, single point] |  |
| Brc1csc(CN2CCc3nc(Nc4ccccc4)ncc3C2)c1 | active: 20.6 µM |  |
| O=C(CN1C(=O)NC2(CCc3ccccc32)C1=O)c1ccc(F)c(F)c1 (stereo unspecified) |  | inactive: -15.8% |
| CN/C(=C/[N+](=O)[O-])NCCSCc1ccc(CN(C)C)o1 | inconclusive: 10.3 µM [inhibitor, partial curve] |  |
| COC(CNC(=O)c1ccc(Cn2c(=S)[nH]c3cc4c(cc3c2=O)OCO4)cc1)OC |  | inactive: -11.6% |
| CC(C)c1cc(C(=O)N(C)C2CCCN(Cc3ccccc3F)C2)n(C)n1 (stereo unspecified) | inconclusive: 20.6 µM [inhibitor, single point] |  |
| COC(=O)N/N=C(\C)c1ccco1 |  | inactive: 6.49% |
| C(=N\Nc1ccccn1)/c1cccnc1 |  | inactive: 3.54% |
| CCOC(=O)C1(Cc2ccccc2)CCCN(C(=O)C=C(C)C)C1 (stereo unspecified) | inconclusive: 25.9 µM [inhibitor, single point] |  |
| COc1ccc(CN(Cc2cccn2C)S(=O)(=O)c2cccc(C(F)(F)F)c2)cc1 | active: 18.4 µM |  |
| CCOc1ccc(/C=C/C(=O)Nc2ccc3[nH]c(=O)[nH]c3c2)cc1 |  | inactive: 15.6% |
| Cc1ccc(Cn2c(=O)n(CCCCC(=O)NCCc3ccc(Cl)cc3)c(=O)c3ccccc32)cc1 | inconclusive: 13 µM [inhibitor, partial curve] |  |
| Cc1cc(N2CCCC2)c(F)cc1/C=C\[N+](=O)[O-] | active: 23.1 µM |  |
| O=C1ON=C(c2ccccc2[N+](=O)[O-])/C1=C/c1cccc([N+](=O)[O-])c1O |  | inactive: 0.801% |
| CC(C)n1cc(CN2CCCC(CNS(=O)(=O)c3cccc4cccnc34)C2)cn1 (stereo unspecified) |  | inactive: -5.53% |
| CCn1c(-c2ccccc2F)nc2cc(C(=O)N3CCCC(CO)C3)cc(NC(C)=O)c21 (stereo unspecified) |  | inactive: 0.944% |
| O=C(C=Cc1ccccc1Cl)c1ccccc1 | inconclusive: 29.1 µM [inhibitor, single point] |  |
| COc1ccc(NC(=O)CN(C)C(=O)c2ccc(-c3cccc(C(F)(F)F)c3)o2)cc1 | inconclusive: 29.1 µM [inhibitor, single point] |  |
| COc1cc(-c2nc(-c3cccnc3)no2)cc(OC)c1OC | inconclusive: 8.2 µM [inhibitor, partial curve] |  |
| COc1ccc(Cl)cc1CC=NNC(=O)c1ccncc1 | active: 9.2 µM |  |
| CC(C)(C)NC(=O)c1cccc(NC(=O)c2ccc3c(c2)C(=O)N(C(C)(C)C)C3=O)c1 | inconclusive: 5.8 µM [inhibitor, single point] |  |
| Nc1ccc(C(=O)OCCc2ccccc2)cc1 |  | inconclusive: -32.2% [inhibitor] |
| Cc1ccc(S(=O)(=O)NCCCNS(=O)(=O)c2ccccc2Br)cc1 |  | inactive: -4.26% |
| O=C1/C(=C/c2ccccc2)NC(=S)N1C(c1ccccc1)c1ccccc1 | active: 4.61 µM |  |

| SMILES | Potency | activity change, negative = growth inhibition |
| --- | --- | --- |
| COc1ccc(/C=C/c2nnc(NC(=O)CSc3ccc(C)cc3)s2)cc1 | inconclusive: 5.01 µM [inhibitor, full curve] |  |
| Cn1c(=O)c2c(n3c4ccccc4nc13)NC(=O)CC2c1ccccc1F (stereo unspecified) | inconclusive: 18.4 µM [inhibitor, single point] |  |
| O=C(Nc1ccc2c(c1)CCC2)c1cccc(S(=O)(=O)N2CCN(c3ccc(F)cc3)CC2)c1 | inconclusive: 9.2 µM [inhibitor, partial curve, poor fit] |  |
| CC1CCc2c(sc3nnn(Cc4ccc(F)cc4)c(=O)c23)C1 (stereo unspecified) | active: 3.26 µM |  |
| CC1=C(C(=O)N(C)C)CC(CC(=O)NCc2cccc3ccccc23)C(=O)N1Cc1ccccc1 (stereo unspecified) | inconclusive: 23.1 µM [inhibitor, single point] |  |
| COc1ccc(S(=O)(=O)N(CC(=O)NCC2CCCO2)Cc2ccccc2)cc1C (stereo unspecified) | inconclusive: 29.1 µM [inhibitor, single point] |  |
| COCC(=O)N1CCC2(CCCN(c3ccc(-c4ccccc4)cc3)C2)CC1 | inconclusive: 29.1 µM [inhibitor, single point] |  |
| Cc1ccccc1Cn1cc(NC(=O)c2cc(-c3ccco3)on2)cn1 | inconclusive: 23.1 µM [inhibitor, partial curve, poor fit] |  |
| CCN1CCN(Cc2ccc(C(=O)Nc3ccc(C)c(NCc4cnc(NC(=O)OC)cn4)c3)cc2C(F)(F)F)CC1 | inactive and inconclusive: 14.6 µM [inhibitor, single point] |  |
| COc1cc(NC(=O)COC(=O)/C=C/c2ccc(OC)c(OC)c2)cc(OC)c1 | inconclusive: 29.1 µM [inhibitor, single point] |  |
| Cn1c(=O)c2c(SCC(=O)Nc3nccs3)nc(C3CC3)nc2n(C)c1=O | active: 23.1 µM |  |
| Cc1cc(C)cc(OCC(=O)NCC(c2ccc(Cl)cc2)N2CCCCC2)c1 (stereo unspecified) | active: 20.6 µM |  |
| COc1c(C(=O)Nc2ccc3[nH]c(=O)[nH]c3c2)cc2ccccc2c1Br | inconclusive: 16.4 µM [inhibitor, partial curve] |  |
| Cc1ccccc1NC(=S)NCc1ccc2[nH]c3c(c2c1)CCCC3 | inconclusive: 20.6 µM [inhibitor, single point] |  |
| CCN1C(=O)C2(C(C(=O)c3cc4ccccc4o3)=C(O)C(=O)N2CCCN2CCOCC2)c2ccccc21 (stereo unspecified) |  | inactive: 18.3% |
| COc1ccc(-c2cn(CCC(=O)NCc3ccc(C)cc3)c(CCN)n2)cc1 |  | inconclusive: -31.2% [inhibitor] |
| Cc1csc2nc(O)c(C(=O)NCc3ccc4c(c3)OCO4)c(=O)n12 | inconclusive: 32.6 µM [inhibitor, partial curve, poor fit] |  |
| COc1ccc2sc(-c3ccccc3OC)c(C#CCCO)c2c1 | inconclusive: 18.4 µM [inhibitor, single point] |  |
| CCOCCc1nnc(NC(=O)CCS(=O)(=O)c2ccccc2)s1 | active: 20.6 µM |  |
| CC(=O)NCCc1ccc(S(=O)(=O)N2CCN(c3nc(-c4ccccc4)c(C)s3)CC2)cc1 | inconclusive: 13 µM [inhibitor, partial curve] |  |
| Cc1ccc2c(ccc[n+]2CC(=O)c2ccccc2)c1 | inconclusive: 23.1 µM [inhibitor, single point] |  |
| Cc1ccc(S(=O)(=O)N2CCOCC2)cc1NC(=O)CSc1nc2ccccc2c(=O)n1Cc1ccccc1 | inconclusive: 16.4 µM [inhibitor, single point] |  |
| COc1ccc(OC)c(N(CC(=O)NCc2ccccc2)S(=O)(=O)c2ccccc2)c1 | active: 11.6 µM |  |
